The assay deals with T1, His tag-acVHH-WT anti-caffeine nanobody, soluble.
T1 construct: Expressed in E. coli; also called AB0; not shown: His tag
Briefly: yeast surface display; 400 nM soluble partner, rising caffeine.

The source of these data is patent US20240400722A1 (MILTENYI BIOTEC B V, published 2024).

B1: acVHH-WT displayed on yeast (Aga2p-HA-tag-(Gly4Ser)3 linker-acVHH-WT-c-myc tag) (VHH)
chain: [about 60 residues not given here]KDNSSTIEGRYPYDVPDYALQASGGGGSGGGGSGGGGSASQVQLVESGGGLVQAGGSLRLSCTASGRTGTIYSMAWFRQAPGKEREFLATVGWSSGITYYMDSVKGRFTISRDKGKNTVYLQMDSLKPEDTAVYYCTATRAYSVGYDYWGQGTQVTVSSGSEQKLISEEDL
notes: Yeast surface display fusion on S. cerevisiae EBY100
For the molecule B1, the binding result is “binds”.
